Measured values reported in PMC5515408.
Some of the results follow. At the low end of the ranking, values are background and their order means little.

test system: MYC (p64) + MAX (p21), in MYC:MAX; assay: protein-binding microarray (anti-MAX antibody); conditions: PBM: 15 mM Tris-HCl pH 7.5, 100 mM KCl, 0.075% NP40, 7.5 mM beta-mercaptoethanol, 375 ng/ul BSA, 8 ng/ul poly(dA-dT):(dA-dT), 550 ng complex, 60 min, room …; high values mean tight binding; double strand, one strand shown; sequences stand for … in CCGGC…TTAATAGCTAAGATTACTATATCGACG

| Sequence | binding signal (log2 normalized fluorescence) |
| --- | --- |
| GGACAAGTGGTC | 0.441 |
| TGAGACCGAGTA | 0.0907 |
| TGATAATCGGTA | -0.119 |
| TGATCATACGTA | 0.177 |
| TGACAATAGGTA | 0.183 |
| TGAGACAGCGTA | 0.087 |
| TGACGTTTAGTA | 0.000463 |
| TGACGCTGGGTA | -0.0999 |
| TAACACAAGGTA | 0.534 |
| TGATACATTGTA | 0.066 |
| TGACAGGTTGTA | 0.252 |
| TGAACTCCGGTA | 0.137 |
| TGACAGCCTGTA | 0.209 |
| TGATTCTTTGTA | -0.0833 |
| TGAACGGCGGTA | 0.00993 |
| CTACACGTGGTA | 0.805 |
| TGATCACTCGTA | 0.0786 |
| TGATACGAAGTA | -0.107 |
| TGAGATCGTGTA | 0.266 |
| TGACAGATGGTA | 0.349 |
| TGATCAGGAGTA | 0.15 |
| TGATCCTGGGTA | -0.0658 |
| TGATCATGTGTA | 0.498 |
| TGATAATGCGTA | 0.153 |
| TGGTACGTGGTA | 0.386 |

| Sequence | binding signal (log2 normalized fluorescence) |
| --- | --- |
| TGAAGCATTGTA | 0.47 |
| TGACTTAACGTA | 0.12 |
| TGAACATCGGTA | 0.234 |
| TGACGGTGTGTA | 0.355 |
| TGAGGTCCCGTA | 0.00547 |
| TGAAGCCAAGTA | -0.132 |
| TGAAGCAGCGTA | 0.063 |
| TGATTGTTTGTA | -0.101 |
| TGAGGCTCTGTA | -0.0561 |
| TGACGCCTCGTA | 0.208 |
| TGACTAAGCGTA | 0.0216 |
| TGACTCACGGTA | 0.255 |
| TGAGCCTATGTA | -0.0846 |
| TGAAGGAGGGTA | -0.12 |
| TGATCTGTGGTA | 0.0273 |
| TGAGAGAATGTA | 0.0493 |
| TGAGAATACGTA | -0.0101 |
| TGAGGGTGAGTA | -0.0316 |
| TGACAGGGAGTA | 0.0524 |
| TGAATGAATGTA | 0.23 |
| TGAGAGCTCGTA | -0.00418 |
| TGATAACCCGTA | 0.17 |
| TGACCTCGCGTA | 0.458 |
| TGACCACTAGTA | 0.286 |
| TGAGGCATTGTA | 0.256 |

| Sequence | binding signal (log2 normalized fluorescence) |
| --- | --- |
| TGATGTCCTGTA | 0.048 |
| TGAGAATCTGTA | -0.193 |
| TGCGTCGTGGTA | 0.418 |
| TGATTCATCGTA | -0.148 |
| TGAGAGGACGTA | -0.0569 |
| TGACACGCCGTA | 0.447 |
| TGAGGACGGGTA | -0.09 |
| TGATCACAGGTA | 0.157 |
| TGAGGGTTTGTA | 0.025 |
| TGAAGGCCCGTA | 0.0982 |
| TGATGTGAGGTA | 0.132 |
| TGACGTTAAGTA | -0.00872 |
| TGAGCCGCAGTA | -0.111 |
| TCACACCTGTTA | 0.547 |
| TGAGTAAATGTA | -0.0255 |
| TGATGTAGCGTA | -0.112 |
| TGAAGCTGCGTA | -0.129 |
| GGACTCGTGATA | 0.37 |
| TGAAGAATTGTA | 0.0207 |
| TGAAGCAAAGTA | 0.125 |
| TGATGACACGTA | 0.247 |
| TGACAAAGAGTA | 0.0488 |
| TGAAGCGGGGTA | 0.271 |
| TGACTTGTCGTA | -0.0101 |
| TGACACGAGATA | 0.491 |
